Laboratory results from patent publication US20250043002A1.

What was measured:
[1] = molecular target: human PD-L1 expressed on cells (HEK293/hCD20/hPSMA/hPD-L1; WSU-DLCL2/hPD-L1) (human) (UniProt Q9NZQ7); test: cell-based or functional assay
[2] = molecular target: human CD28 on cells (endogenous on Jurkat/NFkB-Luc cells; human primary CD4+ T cells) (human) (UniProt P10747); test: cell-based or functional assay

UniProt Q9NZQ7, sequence (Q9NZQ7 19-290): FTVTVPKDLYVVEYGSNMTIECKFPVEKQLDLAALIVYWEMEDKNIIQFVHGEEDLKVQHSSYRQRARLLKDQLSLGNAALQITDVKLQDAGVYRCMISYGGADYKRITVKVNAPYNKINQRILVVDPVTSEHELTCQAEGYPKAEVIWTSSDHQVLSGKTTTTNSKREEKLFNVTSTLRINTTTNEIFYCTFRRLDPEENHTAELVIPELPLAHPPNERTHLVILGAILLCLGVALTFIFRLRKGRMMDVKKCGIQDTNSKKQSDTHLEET

AP-1 luciferase EC50, WSU-DLCL2/hPD-L1 + Jurkat/AP1-Luc/hPD1 [1]: 0.874 nM
AP-1 luciferase MAX (RLU), WSU-DLCL2/hPD-L1 + Jurkat/AP1-Luc/hPD1 [1]: 1.1e+06 RLU
NFkB-luciferase MAX (RLU), Jurkat/NFkB-Luc + HEK293/hCD20/hPSMA [2]: 11400 RLU
NFkB-luciferase MAX (RLU), Jurkat/NFkB-Luc + HEK293/hCD20/hPSMA + CD20×CD3 [2]: 178000 RLU
NFkB-luciferase MAX (RLU), Jurkat/NFkB-Luc + HEK293/hCD20/hPSMA/hPD-L1 [2]: 17300 RLU
NFkB-luciferase MAX (RLU), Jurkat/NFkB-Luc + HEK293/hCD20/hPSMA/hPD-L1 + CD20×CD3 [2]: 145000 RLU
B1: Control 6: a bispecific antibody with one arm binding to PD-L1 (derived from parental antibody mAb9364) and the other arm binding to an unrelated antigen (bispecific antibody, part only; not given: Unrelated antigen arm, V domains shown, part only)
VH: EVQLVESGGGLVQPGRSLRLSCAASGFTFDDYALHWVRQAPGKGLEWVSGISWTGGTIDYADSVKGRFTISRDNAKNSLYLQMSSLRTEDTAIYYCTRDIRGNWKYGGWFDPWGQGTLVTVSS
VL: [left out - about 100 residues]
